From the supplement of paper PMC12230231

These sequences were tested on SIVsab (simian immunodeficiency virus of sabaeus monkeys), single-cycle GFP reporter, in CRFK cells (assay: enrichment among infected cells over input (fold); higher = weaker restriction). Conditions: library: human / rhesus combinations.
Protocol: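 Pools of CRFK cells expressing variants of the TRIM5α v1 loop were challenged with the single-cycle reporter, sorted by GFP and sequenced; mean of two replicates.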

| Sequence | enrichment |
| --- | --- |
| MASGILLNVKEEVTCPICLELLTEPLSLHCGHSFCQACITANHKKSMLYKEGERSCPVCRISYQPENIQPNRHVANIVEKLREVKLSPEEGQKVDHCARHGEKLLLFCQEDSKVICWLCERSQEHRGHHTFLMEEVAQEYHVKLQTALEMLRQKQQEAEKLEADIREEKASWKIQIDYDKTNVSADFEQLREILDWEESNELQNLEKEEEDILKSLTKSETEMVQQTQYMRELISELEHRLQGSMMDLLQGVDGIIKRIENMTLKKPKTFHKNQRRVFRAPDLKGMLDMFRELTDARRYWVDVTLAPNNISHAVIAEDKRQVSSRNPQIMYQARGTRFTFQSFVNFNYCTGVLGSQSITSGKHYWEVDVSKKSAWILGVCAGFQSDAMYNIEQNENYQPKYGYWVIGLQEGVKYSVFQDGSSHTPFAPFIVPLSVIICPDRVGVFVDYEACTVSFFNITNHGFLIYKFSQCSFSKPVFPYLNPRKCTVPMTLCSPSS [rhesus TRIM5α, 332-344 = QARGTRFTFQSFV] | 0.98 ± 0.04 |
| MASGILLNVKEEVTCPICLELLTEPLSLHCGHSFCQACITANHKKSMLYKEGERSCPVCRISYQPENIQPNRHVANIVEKLREVKLSPEEGQKVDHCARHGEKLLLFCQEDSKVICWLCERSQEHRGHHTFLMEEVAQEYHVKLQTALEMLRQKQQEAEKLEADIREEKASWKIQIDYDKTNVSADFEQLREILDWEESNELQNLEKEEEDILKSLTKSETEMVQQTQYMRELISELEHRLQGSMMDLLQGVDGIIKRIENMTLKKPKTFHKNQRRVFRAPDLKGMLDMFRELTDARRYWVDVTLAPNNISHAVIAEDKRQVSSRNPQIMYQARGTRYTFQSFVNFNYCTGVLGSQSITSGKHYWEVDVSKKSAWILGVCAGFQSDAMYNIEQNENYQPKYGYWVIGLQEGVKYSVFQDGSSHTPFAPFIVPLSVIICPDRVGVFVDYEACTVSFFNITNHGFLIYKFSQCSFSKPVFPYLNPRKCTVPMTLCSPSS [rhesus TRIM5α, 332-344 = QARGTRYTFQSFV] | 1.54 ± 0.19 |
| MASGILLNVKEEVTCPICLELLTEPLSLHCGHSFCQACITANHKKSMLYKEGERSCPVCRISYQPENIQPNRHVANIVEKLREVKLSPEEGQKVDHCARHGEKLLLFCQEDSKVICWLCERSQEHRGHHTFLMEEVAQEYHVKLQTALEMLRQKQQEAEKLEADIREEKASWKIQIDYDKTNVSADFEQLREILDWEESNELQNLEKEEEDILKSLTKSETEMVQQTQYMRELISELEHRLQGSMMDLLQGVDGIIKRIENMTLKKPKTFHKNQRRVFRAPDLKGMLDMFRELTDARRYWVDVTLAPNNISHAVIAEDKRQVSSRNPQIMYQARGTLFTFQTFTNFNYCTGVLGSQSITSGKHYWEVDVSKKSAWILGVCAGFQSDAMYNIEQNENYQPKYGYWVIGLQEGVKYSVFQDGSSHTPFAPFIVPLSVIICPDRVGVFVDYEACTVSFFNITNHGFLIYKFSQCSFSKPVFPYLNPRKCTVPMTLCSPSS [rhesus TRIM5α, 332-344 = QARGTLFTFQTFT] | 1.75 ± 0.96 |
| MASGILLNVKEEVTCPICLELLTEPLSLHCGHSFCQACITANHKKSMLYKEGERSCPVCRISYQPENIQPNRHVANIVEKLREVKLSPEEGQKVDHCARHGEKLLLFCQEDSKVICWLCERSQEHRGHHTFLMEEVAQEYHVKLQTALEMLRQKQQEAEKLEADIREEKASWKIQIDYDKTNVSADFEQLREILDWEESNELQNLEKEEEDILKSLTKSETEMVQQTQYMRELISELEHRLQGSMMDLLQGVDGIIKRIENMTLKKPKTFHKNQRRVFRAPDLKGMLDMFRELTDARRYWVDVTLAPNNISHAVIAEDKRQVSSRNPQIMYGAPGTRYTFQTLVNFNYCTGVLGSQSITSGKHYWEVDVSKKSAWILGVCAGFQSDAMYNIEQNENYQPKYGYWVIGLQEGVKYSVFQDGSSHTPFAPFIVPLSVIICPDRVGVFVDYEACTVSFFNITNHGFLIYKFSQCSFSKPVFPYLNPRKCTVPMTLCSPSS [rhesus TRIM5α, 332-344 = GAPGTRYTFQTLV] | 1.6 ± 0.61 |

± gives the standard deviation of the averaged measurements. Restriction of a single-cycle SIVsab GFP reporter by TRIM5α v1-loop variants in CRFK cells. Human variants: read share among cells still uninfected after two challenges over input, higher = gained restriction. Rhesus variants: share among infected cells over input, higher = lost restriction. Reporter dose not given per row. No active / inactive call per row; the paper calls a change when both replicates lie above its controls (mean + 2 SD of stop or wild-type variants, or the top frameshift score). Residues outside the varied loop are taken from Swiss-Prot. The paper reads the human single-substitution scores as noise; they and the rhesus combinations repeat poorly (rank correlation 0.3 to 0.4), indel scores repeat only for the top variants, rhesus substitutions well (0.9).
